Enrichment ratio data for 153 variants are collected here from a collection of fitness landscapes (doi:10.1126/science.1257360).

The list shows a part of the results.

The labels stand for the following.
B1: PhoQ; a variant is named by its letters at X, in order, P23837 (parent)
chain: MKKLLRLFFPLSLRVRFLLATAAVVLVLSLAYGMVALIGYSVSFDKTTFRLLRGESNLFYTLAKWENNKLHVELPENIDKQSPTMTLIYDENGQLLWAQRDVPWLMKMIQPDWLKSNGFHEIEADVNDTSLLLSGDHSIQQQLQEVREDDDDAEMTHSVAVNVYPATSRMPKLTIVVVDTIPVELKSSYMVWSWFIYVLSANLLLVIPLLWVAAWWSLRPIEALAKEVRELEEHNRELLNPATTRELTSLVRNLNRLLKSERERYDKYRTTLTDLTHSLKTPLXXLQXXLRSLRSEKMSVSDAEPVMLEQISRISQQIGYYLHRASMRGGTLLSRELHPVAPLLDNLTSALNKVYQRKGVNISLDISPEISFVGEQNDFVEVMGNVLDNACKYCLEFVEISARQTDEHLYIVVEDDGPGIPLSKREVIFDRGQRVDTLRPGQGVGLAVAREITEQYEGKIVAGESMLGGARMEVIFGRQHSAPKDE

Variants of B1 are the subject of the experiment. Put plainly: enrichment ratio after two sorts for PhoP signalling (ratio (wild type AVST 3.29)); higher = more functional. Conditions: with PhoP (E. coli).
On to LRPW, for which the enrichment ratio was at most 0.25. MLTL: the enrichment ratio is 8.8. Turning to HLAP, the enrichment ratio is at most 0.25. Turning to FSHI, the enrichment ratio is at most 0.25. Consider DVVK, for which the enrichment ratio was at most 0.25. Take RVCA: the enrichment ratio was at most 0.25. Under MTIK stands at most 0.25; under MMDP, at most 0.25; under VWFL, at most 0.25.

On to TSKM, for which the enrichment ratio was at most 0.25.

For TEWC, the enrichment ratio was determined as 33.2. As to EQKT, the enrichment ratio was at most 0.25. The same measure for PFPS: at most 0.25. Take VRFL: the enrichment ratio is at most 0.25. With MIAC, the enrichment ratio came to 1.86. Regarding ESGP, the enrichment ratio is at most 0.25. Turning to VWGD, the enrichment ratio is at most 0.25. Consider RQVI, for which the enrichment ratio was at most 0.25.

Consider MLIE, for which the enrichment ratio was at most 0.25. For DCVR, the enrichment ratio is at most 0.25. Turning to FLMA, the enrichment ratio is at most 0.25. In the case of NFPC, the enrichment ratio was at most 0.25. Consider NWTY, for which the enrichment ratio was at most 0.25. With FCPM, the enrichment ratio was at most 0.25. Consider KEEF, for which the enrichment ratio is at most 0.25.

In the case of PDWQ, the enrichment ratio was at most 0.25.

MCGP: the enrichment ratio is at most 0.25. Turning to YRVW, the enrichment ratio was at most 0.25.

Take MNVP: the enrichment ratio is at most 0.25.

In the case of DIDH, the enrichment ratio is at most 0.25. Consider WIHK, for which the enrichment ratio is at most 0.25. With YDNY, the enrichment ratio was at most 0.25. Under KSLF stands at most 0.25; under TLDQ, at most 0.25. Under RFGQ stands 0.782. Take ARSC: the enrichment ratio is at most 0.25.

With TFAH, the enrichment ratio worked out at 1.37. For the variant GSKI, the enrichment ratio was at most 0.25. Under WGAD stands at most 0.25; under GKPG, at most 0.25; under HMSW, at most 0.25.

As to IYGE, the enrichment ratio is at most 0.25.

Consider PIFV, for which the enrichment ratio is at most 0.25.

As for YCKI, the enrichment ratio was at most 0.25.

For the variant NTTR, the enrichment ratio was at most 0.25.

Turning to VEDN, the enrichment ratio is at most 0.25. As to LWGQ, the enrichment ratio is at most 0.25. With RLWA, the enrichment ratio is at most 0.25. Consider YNSG, for which the enrichment ratio was at most 0.25.

In the case of RLGG, the enrichment ratio was at most 0.25.

Regarding KGIG, the enrichment ratio is at most 0.25. As to EDRL, the enrichment ratio was at most 0.25. Under NTER stands at most 0.25; under NCGK, at most 0.25. Take FDEK: the enrichment ratio is at most 0.25. Under TVQR stands 9.01; under DNLK, at most 0.25.

For the variant KMAS, the enrichment ratio was at most 0.25.

Turning to GKIE, the enrichment ratio was at most 0.25. Regarding NVLH, the enrichment ratio is at most 0.25.

In the case of ESSD, the enrichment ratio is at most 0.25. As for LTWF, the enrichment ratio came out at 0.951. Regarding NKPM, the enrichment ratio was at most 0.25. The same measure for HHEV: at most 0.25. As to FSVT, the enrichment ratio was at most 0.25. Under SYWY stands at most 0.25. In the case of LATQ, the enrichment ratio was at most 0.25. Under PLCY stands 0.345; under VHDH, at most 0.25; under ECRY, at most 0.25. As to RYHY, the enrichment ratio was at most 0.25.

As to YLVD, the enrichment ratio is at most 0.25. The same measure for DWMC: at most 0.25.

Regarding ERIP, the enrichment ratio was at most 0.25. With YMTM, the enrichment ratio is at most 0.25. With NRYC, the enrichment ratio was at most 0.25.

As for VDGL, the enrichment ratio was at most 0.25. Consider LQGH, for which the enrichment ratio was at most 0.25.

For the variant PFRR, the enrichment ratio worked out at 0.315.

Regarding GIMI, the enrichment ratio was 25.7. For the variant KGRF, the enrichment ratio was at most 0.25. For WEPQ, the enrichment ratio was at most 0.25.

With MAVM, the enrichment ratio was at most 0.25. Under PCRM stands at most 0.25; under QIWC, at most 0.25. Under LYVT stands at most 0.25; under RFIC, at most 0.25; under ALSG, 9.24. Under ATNR stands at most 0.25; under NDHY, at most 0.25. Regarding PIPL, the enrichment ratio is at most 0.25. In the case of YQSD, the enrichment ratio was at most 0.25.

In the case of VNYQ, the enrichment ratio was at most 0.25.

On to YRYQ, for which the enrichment ratio was at most 0.25. On to GNSH, for which the enrichment ratio was 1.23. MTQK: the enrichment ratio was at most 0.25. Consider FYAN, for which the enrichment ratio is at most 0.25.

For the variant GLEK, the enrichment ratio is at most 0.25.

GWKL: the enrichment ratio is at most 0.25.

On to MCWW, for which the enrichment ratio is at most 0.25. In the case of GFVF, the enrichment ratio amounted to 0.32. On to HDGR, for which the enrichment ratio is at most 0.25. Take VHWC: the enrichment ratio is at most 0.25. Regarding RLDT, the enrichment ratio is at most 0.25. As for NYKG, the enrichment ratio was at most 0.25. Regarding RCPQ, the enrichment ratio was at most 0.25. As for ANTP, the enrichment ratio was at most 0.25. With AKRC, the enrichment ratio was at most 0.25. As for KSME, the enrichment ratio is at most 0.25. On to MPMM, for which the enrichment ratio is at most 0.25. On to MPLC, for which the enrichment ratio is at most 0.25.

Turning to MVIL, the enrichment ratio is at most 0.25. Turning to SNIV, the enrichment ratio is 9.73.

With PHHP, the enrichment ratio was at most 0.25. As to GPVP, the enrichment ratio was at most 0.25. Take DDNF: the enrichment ratio was at most 0.25. As to WCGW, the enrichment ratio is at most 0.25.

As to NQCN, the enrichment ratio is at most 0.25. The same measure for SIWG: at most 0.25; for VMPV: at most 0.25.

Take FFSH: the enrichment ratio is at most 0.25.

For MTMT, the enrichment ratio is at most 0.25.

In the case of GPHY, the enrichment ratio is at most 0.25. For SRNL, the enrichment ratio was at most 0.25. For the variant QLWS, the enrichment ratio was at most 0.25. Regarding QTVQ, the enrichment ratio was at most 0.25. Turning to NWPY, the enrichment ratio is at most 0.25. As to MDWA, the enrichment ratio is at most 0.25.

For HICQ, the enrichment ratio is at most 0.25. Turning to LERY, the enrichment ratio was at most 0.25.

For the variant HTRG, the enrichment ratio was at most 0.25.

With NTMA, the enrichment ratio was at most 0.25. Consider PHYC, for which the enrichment ratio was at most 0.25. On to MFHP, for which the enrichment ratio is at most 0.25. As to SKGN, the enrichment ratio is at most 0.25. Regarding MICF, the enrichment ratio was 7.24. Take GCVN: the enrichment ratio came to 1.85. With FSDY, the enrichment ratio is at most 0.25.

As for SKAE, the enrichment ratio is at most 0.25. In the case of HCLQ, the enrichment ratio was at most 0.25. The same measure for ERND: at most 0.25. Take PIWV: the enrichment ratio was at most 0.25. On to TTLQ, for which the enrichment ratio turned out to be 10.7. As to VVRR, the enrichment ratio is at most 0.25. Under EVPD stands at most 0.25.

Consider DVEF, for which the enrichment ratio is at most 0.25. Regarding SRDN, the enrichment ratio is at most 0.25. On to QWPP, for which the enrichment ratio was at most 0.25. With GCPK, the enrichment ratio was at most 0.25. Under WNLP stands at most 0.25; under TMED, at most 0.25. The same measure for RITQ: at most 0.25. Under VAGP stands at most 0.25.
